This is an account of results in paper PMC6919601, “Identification of Plasmodium dipeptidyl aminopeptidase allosteric inhibitors by high throughput screening” (PLoS ONE, 2019).

Among all 110,000 compounds or so, about 230 (0.21%) showed an effect of 50% or more. Some of the results follow.
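Note: 30 min substrate incubation versus DMSO and 10 µM JCP410 controls.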

In this test the target is DPAP1 (Plasmodium falciparum, UniProt Q8IIJ9). As to the kind of experiment: primary screen, percent inhibition; read by cleavage of a fluorogenic dipeptide substrate; higher = more effect of the substance. Set-up: species or system P. falciparum D10 trophozoite lysates; single well.
Sequence of DPAP1 (Q8IIJ9 whole entry, looked up): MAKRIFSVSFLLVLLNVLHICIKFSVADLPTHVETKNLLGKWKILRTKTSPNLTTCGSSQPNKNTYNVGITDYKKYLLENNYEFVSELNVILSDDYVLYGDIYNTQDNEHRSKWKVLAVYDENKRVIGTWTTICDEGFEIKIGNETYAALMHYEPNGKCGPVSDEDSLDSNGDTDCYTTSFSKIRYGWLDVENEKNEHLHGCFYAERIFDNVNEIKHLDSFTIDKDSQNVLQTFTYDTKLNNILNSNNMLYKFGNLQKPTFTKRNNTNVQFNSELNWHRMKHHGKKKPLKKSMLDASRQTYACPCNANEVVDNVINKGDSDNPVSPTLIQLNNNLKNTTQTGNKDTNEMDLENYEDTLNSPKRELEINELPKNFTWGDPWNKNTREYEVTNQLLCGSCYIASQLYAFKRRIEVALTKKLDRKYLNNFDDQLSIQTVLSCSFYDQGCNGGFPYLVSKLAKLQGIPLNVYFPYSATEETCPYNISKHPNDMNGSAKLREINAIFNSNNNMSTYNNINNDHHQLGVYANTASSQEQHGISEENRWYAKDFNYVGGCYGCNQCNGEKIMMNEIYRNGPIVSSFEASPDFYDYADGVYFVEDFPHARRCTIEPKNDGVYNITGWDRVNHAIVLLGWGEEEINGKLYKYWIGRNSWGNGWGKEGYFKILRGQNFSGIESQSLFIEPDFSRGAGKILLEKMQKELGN
With `O=C(c1ccccc1)N1CC(COc2ccccc2)OC(c2ccco2)O1` (centres unmarked), the “% Inhibition @ 10 uM” value is on record as -7.55%. As for `COc1ccccc1OCc1ccc(C(=O)N2N=C(C(F)F)CC2(O)C(F)F)cc1` (centres unmarked), the “% Inhibition @ 10 uM” value amounted to 0.389%. The value for `CC1=CC(C)C(COC(=O)CN2CCCCC2)C(C)C1` (centres unmarked) was 3.15%; that for `CCN(CC)CCOC(=O)C(c1ccccc1)c1ccccc1` was -1.29%. Consider `Cc1ccc(OCCN2C(=O)S/C(=C\c3ccc(C)o3)C2=O)cc1`, for which the “% Inhibition @ 10 uM” value is recorded as 0.13%. Turning to `COCCNC(=O)NC1(C(F)(F)F)Oc2cc(Cl)c(Cl)cc2O1`, the “% Inhibition @ 10 uM” value came out at 2.06%. `CC(=O)Nc1sc2c(c1C(c1ccccn1)N1CCN(C)CC1)CCCC2` (centres unmarked): the “% Inhibition @ 10 uM” value was determined as 8.44%. The value for `O=Cc1cn(CC(=O)NCCc2ccccc2)c2ccccc12` was -0.971%; that for `CC1=CC(C)(C)N(C(=O)CN2C(=O)CCC2=O)c2ccccc21` was -3.26%; that for `O=C(Nc1ccccc1)NC1CCCC1` was -1.62%. For the compound `COc1cc(CN2CCN(C)CC2)cc2c1OCO2`, the “% Inhibition @ 10 uM” value stood at 4.03%.

As for `CCOc1cc(/C=c2/sc3nc4ccccc4n3c2=O)ccc1OC(C)C(=O)O` (centres unmarked), the “% Inhibition @ 10 uM” value is given as -4.51%. The value for `CCNc1ccccc1-c1nc2ccccc2nc1O` was -2.42%; that for `COc1ccc(S(=O)(=O)N2CCCCC2)cc1Br` was -1.1%; that for `CC(=O)N(C)c1ccc(NC(=O)COc2ccc(Br)cc2C)cc1` was -1.6%. With `CCCCSc1nnc2c(n1)[nH]c1ccc(C)cc12`, the “% Inhibition @ 10 uM” value is on record as 44.7%. The value for `CCOC(=O)c1nnn(-c2nc(OC)nc(N(C)C)n2)c1-c1ccccc1` was -8.28%; that for `Cc1cc2cc([N+](=O)[O-])ccc2n1Cc1ccccc1` was 3.9%; that for `O=C(CCCn1sc2ccccc2c1=O)NCc1cccnc1` was 0.655%.

For `OC(c1ccccn1)(c1ccccn1)c1ccccn1`, the “% Inhibition @ 10 uM” value is reported as -9.07%. For the compound `COc1ccc(-c2cc3ccccc3n2CC(O)CNC(CO)(CO)CO)cc1` (centres unmarked), the “% Inhibition @ 10 uM” value was -1.81%.

On to `CCOc1ccccc1/N=C1/C=C(O)CC(c2ccc(OC)cc2)C1` (centres unmarked), for which the “% Inhibition @ 10 uM” value is reported as 0.851%. The value for `CCC(C)NC(=O)c1sc2nc(C)cc(C)c2c1-n1cccc1` (centres unmarked) was 0.413%; that for `O=C(Cn1ncc2c3ccccc3nc-2c1O)N1CCc2ccccc2C1` was 5.49%. The value for `OCCN1CCN(CCc2ccccc2)CC1` was -0.603%; that for `Cc1ccccc1Cc1c(C)nc2nc(SCC(=O)NC(C)(C)C)nn2c1C` was -0.363%.

With `O=S(=O)(c1ccc(N2CCN(CCO)CC2)nc1)N1CCOCC1`, the “% Inhibition @ 10 uM” value worked out at 0.245%.

As for `CCCN1CCC(Nc2cccc(SC)c2)CC1`, the “% Inhibition @ 10 uM” value came to 3.05%. In the case of `Cc1cc(=O)oc2c3c(ccc12)OCN(Cc1ccco1)C3`, the “% Inhibition @ 10 uM” value was 6.66%. As to `COc1ccccc1-c1c(C)nn2c(N)c(-c3ccc(Cl)cc3)cnc12`, the “% Inhibition @ 10 uM” value is on record as -1.24%. As for `CC(NC(=O)C(=O)NCc1ccco1)C(c1cccs1)N1CCN(C)CC1` (centres unmarked), the “% Inhibition @ 10 uM” value was -4.74%. Take `Cn1nc(N)c2c(-c3ccc(Cl)cc3)c(C#N)c(N)nc21`: the “% Inhibition @ 10 uM” value is on record as 2.48%. For `CCCCNC(=S)NCc1ccc2[nH]c(C)cc2c1` the value was -1.89%; for `COc1cc2c(cc1OC)C(c1cc(OC)c(O)c(OC)c1)NCC2` (centres unmarked), -3.62%; for `COC(=O)c1cccnc1NC(=S)NC1CCCCC1`, 10%.

For `COc1ccc2oc(-c3ccccc3)c(C(=O)Nc3nccs3)c2c1`, the “% Inhibition @ 10 uM” value is -4.93%. The value for `CCCCCOC(=O)Nc1ccc(S(=O)(=O)Nc2ccc(F)cc2)cc1` was 6.86%; that for `Cc1ccccc1CNC(=O)Cn1nc(C)c2sc3ccccc3c2c1=O` was -7.87%.

Regarding `Cn1c(=O)c2c(n3c4ccccc4nc13)NC(=O)CC2c1ccc(OCc2ccccc2F)cc1` (centres unmarked), the “% Inhibition @ 10 uM” value worked out at 0.883%. The value for `CCN(CC)c1ccc(C(=O)c2ccccc2C(=O)O)c(O)c1` was -3.6%; that for `CCOC(=O)C1=C(N)Oc2c(c(O)nc3ccc(C)cc23)C1c1ccc(OC)cc1` (centres unmarked) was 3.93%. The value for `COc1cc(Cc2nnc(C(=O)NCc3ccccc3Cl)o2)cc(OC)c1OC` was -1.14%.

On to `Cc1nnc(SCC(=O)NCc2ccc3c(c2)OCO3)c2nn(-c3ccccc3)c(C)c12`, for which the “% Inhibition @ 10 uM” value is recorded as -1.95%. Consider `O=C(C1CCCN(c2ncnc3c2nc2n3CCCCC2)C1)N1CCCC1` (centres unmarked), for which the “% Inhibition @ 10 uM” value is -4.51%. For `CC(=O)Nc1ccc(N/C=C(\C#N)c2nc3cc(Cl)ccc3o2)cc1` the value was 2.08%; for `O=C(CSc1nc2nncc-2c(O)n1-c1ccccc1)c1ccc2c(c1)OCCO2`, -2.77%; for `COc1cc2c(cc1OC)C1(CCCC1)CN(CCCN)C2C` (centres unmarked), -2.63%. `CC1(C)CC(=O)C2=C(C1)N(c1ccccc1)C(=O)C2(O)C(F)(F)F` (centres unmarked): the “% Inhibition @ 10 uM” value is -4.39%. On to `C=CCn1c(=N)c(C(N)=S)cc2c(=O)n3cccc(C)c3nc21`, for which the “% Inhibition @ 10 uM” value is -1.66%. Turning to `Cc1csc2[n+]1-c1ccccc1N(C(=O)Nc1ccccc1)CC2`, the “% Inhibition @ 10 uM” value was -1.17%. Take `COc1cc(NC2=NC(=O)/C(=C/c3cccs3)S2)c(C(=O)O)cc1OC`: the “% Inhibition @ 10 uM” value is listed as -2.28%. The value for `O=C1c2ccccc2-c2nc3ncnn3c(-c3ccc4c(c3)OCO4)c21` was 0.746%; that for `O=C(O)c1ccc(NS(=O)(=O)c2ccc(-c3ccccc3)cc2)cc1` was -2.85%; that for `COc1ccc(N2CCN(Cc3cccs3)CC2)cc1` was 4.04%. The value for `COc1ccccc1N1CCN(Cc2ccccn2)CC1` was 3.35%; that for `Cc1cccc(-c2noc(CCC(=O)NCC(C)C)n2)c1` was 6.01%; that for `COc1cccc(Nc2nc(-c3ccc(S(=O)(=O)N4CCCCC4)cc3)cs2)c1` was 4.16%. In the case of `Cc1ccc(NC(=O)Cn2nc(C(F)(F)F)cc2C2CC2)cc1`, the “% Inhibition @ 10 uM” value came to 1.59%. The value for `CCOC(=O)N1CCN(S(=O)(=O)N2CCCC(C(=O)NC(C)c3ccccc3)C2)CC1` (centres unmarked) was -4.97%; that for `Cc1cc(NC(=O)c2cc3nc(-c4ccccc4)cc(-c4ccccc4)n3n2)no1` was 3.54%; that for `COc1ccc2c(CNCCCc3ccccc3)c(C(=O)O)n(Cc3ccccc3C)c2c1` was 1.69%. The value for `CCOC(=O)C1=C(C(F)(F)F)Nc2ncnn2C1c1ccc(Br)cc1` (centres unmarked) was -1.62%; that for `CCOc1cccc(C(=O)Nc2nn3c(-c4ccco4)nnc3s2)c1` was 0.522%; that for `COC(=O)c1cc(C2CC2)[nH]n1` was -1.6%.

In the case of `O=S(=O)(O)c1nnc2n(Cc3ccccc3)c3ccccc3n12`, the “% Inhibition @ 10 uM” value is -0.45%. As to `Cc1ccc(S(=O)(=O)N(CC(=O)Nc2ccccc2C(=O)O)c2cccc(Cl)c2C)cc1`, the “% Inhibition @ 10 uM” value is listed as 4.74%. For `CS(=O)(=O)N(CC(=O)NC1CC1)c1cc(C(F)(F)F)ccc1Cl` the value was 6.69%; for `CCOc1cc(C2C(C#N)=C(N)Oc3[nH]nc(-c4ccc5c(c4)OCO5)c32)ccc1OC` (centres unmarked), 1.03%. For `CCOC(=O)CSc1nc(-c2ccccc2)cc(-c2ccccc2OC)c1C#N` the value was 6.15%; for `Cc1cc(C)n(C(=O)C2CC=CCC2C(=O)O)n1` (centres unmarked), 3.94%; for `COc1ccc(-c2noc(O)n2)cc1`, -0.551%. For `COc1ccc(S(=O)(=O)N(CC(=O)NC2CCCCC2)c2cc(C)cc(C)c2)cc1OC` the value was -13.4%. On to `COc1ccc(C2C(C#N)=C(N)Oc3c2ccc2ccccc32)cc1` (centres unmarked), for which the “% Inhibition @ 10 uM” value is reported as -4.31%.

As to `Cc1nnc(NC(=O)CSc2nc(-c3ccccc3Cl)ns2)s1`, the “% Inhibition @ 10 uM” value is recorded as 2.53%. For `O=C(Nc1ccn(Cc2ccc(F)cc2)n1)C1c2ccccc2Oc2ccccc21` the value was 3.94%. For `Cn1c(CNC2CCCCC2)nc2ccccc21` the value was 2%; for `COC(=O)c1ccc2c(c1)C(=O)N(c1ccc(Br)cc1)C2=O`, -5.78%. For `O=C(/C=C/c1ccccc1)Nc1ccc([N+](=O)[O-])cc1` the value was 2.94%.

Consider `CCOc1cc(C2CC(=O)Nc3ccc4ccccc4c32)cc(Br)c1O` (centres unmarked), for which the “% Inhibition @ 10 uM” value was -4.41%. Turning to `O=C1C(=O)c2ccccc2/C1=C/c1ccc([N+](=O)[O-])cc1`, the “% Inhibition @ 10 uM” value came to 16.5%. Take `CC(C)C[C@H](NC(=O)C1CCC(C)CC1)C(=O)NCC#N` (some centres unmarked): the “% Inhibition @ 10 uM” value was -3.04%. The value for `Cn1c(=O)c2c(ncn2CC(=O)Nc2nncs2)n(C)c1=O` was 1.84%. Regarding `CCOC(=O)C1=C(CN2CCC(c3ccc(C)cc3)C2)NC(=O)NC1c1ccc(OC(C)C)cc1` (centres unmarked), the “% Inhibition @ 10 uM” value amounted to 0.708%. The value for `Cc1csc(NC(=O)C2CCCN(c3ncnc4c3nc3n4CCCCC3)C2)n1` (centres unmarked) was 5.92%. For `CCC(=O)c1ccc2cccc3c2c1NC(CC)=N3` the value was 3.46%. The value for `Cc1cc(C)n(-c2nnc(C)n2/N=C/c2ccccc2OCC(=O)O)n1` was -4.51%; that for `Cc1ccc(C(=O)O)cc1-c1ccc(/C=C2/SC(=O)NC2=O)o1` was -2.14%. Regarding `Cc1nnc(N2CCC(C(=O)NCc3ccccc3F)CC2)c2c(C)n(Cc3ccccc3)c(C)c12`, the “% Inhibition @ 10 uM” value came to 1.43%. The value for `COc1ccccc1C(=O)Nc1ccc(CC#N)cc1` was 0.83%; that for `O=C(c1cnn2c(C(F)(F)F)cc(-c3ccc4c(c3)OCO4)nc12)N1CCCCC1` was 2.25%; that for `O=C(c1ccccc1Cl)N1CCN(C/C=C/c2ccccc2)CC1` was -6.21%. For `Cc1ccc(CS(=O)Cc2ccc(C(=O)N3CCN(C4CCCCC4)CC3)o2)cc1` (centres unmarked) the value was 2.57%; for `Cc1ccc(S(=O)(=O)N2CCN(C/C=C/c3ccccc3)CC2)c(C)c1C`, -1.04%; for `Cc1ccc(S(=O)(=O)N2CCN(C(=O)N3CCCCC3)CC2)cc1`, -3.33%.

Take `COc1ccc(C)cc1NC(=O)C1CCN(C(=O)c2cc(OC)c(OC)c(OC)c2)CC1`: the “% Inhibition @ 10 uM” value is 1.28%. The value for `O=C1S/C(=C\c2ccc(Br)o2)C(=O)N1CCOc1ccccc1` was 2.01%; that for `Cc1ccccc1OCC(=O)Nc1sc(C)c(C)c1C(N)=O` was 4.53%; that for `Cc1cccn2c(=O)c3cc(C#N)c(=N)n(CCN4CCOCC4)c3nc12` was -1.47%. `Oc1ccc(SCCCCCN2CCCCC2)cc1`: the “% Inhibition @ 10 uM” value is on record as -0.712%.

On to `Cc1cc(F)c(F)cc1C(=O)n1nnc2ccccc21`, for which the “% Inhibition @ 10 uM” value is recorded as -8.57%. `O=C(C1=C(O)C(=O)N(Cc2cccnc2)C1c1ccc(Br)cc1)c1ccccc1` (centres unmarked): the “% Inhibition @ 10 uM” value is reported as 6.22%.
